Four substances from publication PMC4057743 can be followed below.

Chains of the proteins cited; added tags and fusions are not shown. Lines headed by an entry give the natural chain unless they say otherwise; changes in a name come on top. Residues count along the entry.
UniProt Q84MC7: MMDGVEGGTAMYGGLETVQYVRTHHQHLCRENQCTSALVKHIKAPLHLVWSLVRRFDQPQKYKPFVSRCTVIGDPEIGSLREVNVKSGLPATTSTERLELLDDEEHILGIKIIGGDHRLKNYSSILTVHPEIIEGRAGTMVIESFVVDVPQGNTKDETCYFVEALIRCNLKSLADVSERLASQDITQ
UniProt O49686: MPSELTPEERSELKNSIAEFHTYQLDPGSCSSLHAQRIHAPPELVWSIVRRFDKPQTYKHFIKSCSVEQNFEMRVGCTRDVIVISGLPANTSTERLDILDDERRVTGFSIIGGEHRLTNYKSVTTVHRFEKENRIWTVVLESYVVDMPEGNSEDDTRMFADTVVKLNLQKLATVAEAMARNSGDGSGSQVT
UniProt Q9FDW1: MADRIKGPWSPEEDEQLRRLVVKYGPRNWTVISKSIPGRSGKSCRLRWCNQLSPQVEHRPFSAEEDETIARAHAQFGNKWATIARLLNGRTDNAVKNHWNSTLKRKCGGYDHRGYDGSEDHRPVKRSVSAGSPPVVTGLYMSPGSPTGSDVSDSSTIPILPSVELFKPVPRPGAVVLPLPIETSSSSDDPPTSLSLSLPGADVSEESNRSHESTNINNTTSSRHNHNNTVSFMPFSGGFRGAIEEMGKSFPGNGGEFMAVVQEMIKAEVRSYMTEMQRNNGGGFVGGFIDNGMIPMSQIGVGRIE
UniProt Q9SN12, residues 26-286: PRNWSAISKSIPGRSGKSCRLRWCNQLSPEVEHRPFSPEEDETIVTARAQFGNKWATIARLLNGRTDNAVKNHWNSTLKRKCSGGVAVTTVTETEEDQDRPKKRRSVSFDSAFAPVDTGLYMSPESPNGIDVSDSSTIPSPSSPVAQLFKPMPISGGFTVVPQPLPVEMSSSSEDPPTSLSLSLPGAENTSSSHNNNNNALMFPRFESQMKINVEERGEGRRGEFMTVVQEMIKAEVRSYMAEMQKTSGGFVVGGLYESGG
UniProt O23160: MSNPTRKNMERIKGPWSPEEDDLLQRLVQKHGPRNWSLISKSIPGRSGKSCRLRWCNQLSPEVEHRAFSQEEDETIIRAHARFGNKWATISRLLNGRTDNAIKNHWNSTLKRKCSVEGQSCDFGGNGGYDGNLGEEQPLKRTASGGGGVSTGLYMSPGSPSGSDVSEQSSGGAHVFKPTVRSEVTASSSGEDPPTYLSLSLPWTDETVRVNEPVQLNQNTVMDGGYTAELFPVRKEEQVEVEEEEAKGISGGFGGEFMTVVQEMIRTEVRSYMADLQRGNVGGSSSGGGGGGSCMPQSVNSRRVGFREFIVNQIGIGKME

For experiment [1], the target named is RCAR1/PYL9 bait (pGBKT7) (Arabidopsis) (UniProt Q84MC7). In words: two-hybrid; screen of an Arabidopsis GAL4 AD/cDNA library with RCAR1/PYL9 as bait.
The target of experiment [2] is T1, full-length RCAR8/PYL5 bait (pGBKT7) (Arabidopsis) (UniProt Q9FLB1).
T1 sequence: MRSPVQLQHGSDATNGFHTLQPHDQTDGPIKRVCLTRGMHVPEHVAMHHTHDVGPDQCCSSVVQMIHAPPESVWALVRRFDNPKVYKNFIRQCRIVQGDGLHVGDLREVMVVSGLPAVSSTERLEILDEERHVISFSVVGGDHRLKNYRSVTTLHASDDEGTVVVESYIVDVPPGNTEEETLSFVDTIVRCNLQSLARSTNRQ
As to the kind of experiment: two-hybrid; AH109 yeast; baits in pGBKT7, preys in pGADT7; growth on SD/-L-T-H-A and X-α-Gal staining, 3 days at 30 °C; with or without 10 μM ABA in the medium.

The target in experiment [3] is full-length RCAR11/PYR1 bait (pGBKT7) (Arabidopsis) (UniProt O49686). The description is as above.
Experiment [4] deals with T2, full-length RCAR3/PYL8 bait (pGBKT7) (Arabidopsis) (UniProt Q9FGM1).
T2 sequence: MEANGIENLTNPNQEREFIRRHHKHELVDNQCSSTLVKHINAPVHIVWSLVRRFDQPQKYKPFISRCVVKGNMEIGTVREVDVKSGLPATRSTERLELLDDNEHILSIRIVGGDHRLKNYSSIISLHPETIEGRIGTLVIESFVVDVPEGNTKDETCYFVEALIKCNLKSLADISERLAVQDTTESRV
The experiment is described as above.

Experiment [5] addresses RCAR1/PYL9 bait (pGBKT7) (Arabidopsis) (UniProt Q84MC7). The experiment is described as above.

No constants are given. Whether binding was seen depends on the method and setting. Some entries that bind do so weakly or less than the wild type.

Regarding “AtMYB44 library clone (residues 48-305) (from UniProt Q9FDW1 48-305) (domain or fragment)”, the binding entry in experiment [1] is given as “binds”.
Take “full-length AtMYB44 prey (pGADT7) (from UniProt Q9FDW1 1-305)”: the values for the binding entry in experiment [2], in experiment [3] and in experiment [4] were “no binding”, “no binding” and “binds”, respectively.
On to “AtMYB77 library clone (residues 26-286) (from UniProt Q9SN12 26-286) (domain or fragment)”, for which the binding result in experiment [1] is listed as “binds”.
As for “full-length AtMYB73 prey (pGADT7) (from UniProt O23160 1-320)”, the binding result in experiment [5] was “binds”.
